# Measurements reported in PubChem BioAssay (NCATS).
# The inconclusive results got no clear call from the source; some entries with a clear call stand among them for comparison. Potencies beside an inconclusive call are fits to weak or partial responses and may not hold up. Active and inactive are the calls of the source. Calls follow the shape of the dose curve; as a rule, active = well fitted cell-killing curve with a large enough effect; inconclusive = small, poorly fitted or top-dose-only effect, or effect the other way; inactive = no such curve, though single readings can be large or run the other way.
# Assay: Viability qHTS for spleen associated tyrosine kinase inhibitor (SYKi) naive MV4-11 cells (AID 1963823); also: nearly all actives have a fitted effect of over 40% in size
# Conditions: MV4-11 AML viability, CellTiter-Glo luminescence, 72 h; viability (% of control): at 45 µM (top of the series)
# In short: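 CellTiter-Glo luminescence, 10 min room-temperature incubation, gave viability. Cells: naive MV4-11 (500/well), treated 72 hr at 37 C, 5% CO2.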
# Potency is read from the fitted curve at half-maximal effect; tags tell the direction and shape of the fitted curve.
Compound,Potency,viability (% of control)
O=C1Nc2ccccc2/C1=C/c1cc(O)ccc1O,"inconclusive: 3.66 µM [cytotoxic, full curve]",–
CC(C)C1NC(=O)C(CC2(O)c3ccccc3N3C(=O)C(Cc4ccccc4)NC32)NC1=O (stereo unspecified),–,inactive: 70.2% [at 17.3 µM]
COc1cccc(NCCC2(c3ccccc3)CC(C)(C)OC(C)(C)C2)c1,"inconclusive: 2.31 µM [cytotoxic, single point]",–
C=C1CCC2C(C)(C)C(O)CCC2(C)C1CCC(C)CCOC(C)=O (stereo unspecified),"inconclusive: 9.04 µM [cytotoxic, partial curve, poor fit]",–

# Assay: Viability qHTS for spleen associated tyrosine kinase inhibitor (SYKi) drug resistant MV4-11 cells (AID 1963824); also: nearly all actives have a fitted effect of over 35% in size
# Conditions: SYKi-resistant MV4-11 viability, CellTiter-Glo, 72 h; series mostly up to 45 µM; viability, % of control: at the top concentration
# In short: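 SYK inhibitor-resistant MV4-11 AML cells, 500 per well, added to predispensed compounds and incubated 72 hr at 37 C, 5% CO2. Viability measured by CellTiter-Glo luminescence after 10 min at room temperature.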
Compound,Potency,"viability, % of control"
C[C@]12CC[C@@H]3c4ccc(O)cc4CC[C@H]3[C@@H]1CCC2=O,"inconclusive: 11.9 µM [cytotoxic, partial curve]",–
COc1ccc(OC)c(C(O)CNC(=O)CN)c1 (stereo unspecified),–,inactive: 71.2%
CC(=O)OC1C(O)C(C)=C(CCC(C)CC(=O)O)C2(C)CCCC(C)(C)C12 (stereo unspecified),"inconclusive: 12.8 µM [cytotoxic, partial curve, poor fit]",–
CCC(COC)n1nnc2c(Nc3ccc(OC)cc3C)nc(C)cc21 (stereo unspecified),"inconclusive: 10.3 µM [cytotoxic, partial curve, poor fit]",–
CCC/C=C/C(=O)O[C@H]1CC(C)(C)CC2[C@]13[C@H](O)O[C@@]21CCC2[C@@]4(C)CC[C@H](O[C@@H]5O[C@H](C(=O)O)[C@@H](O)[C@H](O[C@@H]6O[C@H](CO)[C@H](O)[C@H](O)[C@H]6O[C@@H]6O[C@@H](C)[C@H](O)[C@@H](O)[C@H]6O[C@@H]6OC[C@](O)(CO)[C@H]6O)[C@H]5O[C@@H]5O[C@H](CO)[C@H](O)[C@H](O)[C@H]5O)C(C)(C)C4CC[C@@]2(C)[C@]1(C)C[C@H]3OC(C)=O (stereo partly specified),–,inactive: 66.3% [at 9.25 µM]
O=C(Nc1cc(C(F)(F)F)cc(C(F)(F)F)c1)c1cnc(Cl)nc1C(F)(F)F,"inconclusive: 23.1 µM [cytotoxic, partial curve]",–
CC1=C2C(=O)C=C(CO)C2C2OC(=O)C(CS(=O)(=O)O)C2C(OC(=O)Cc2ccc(O)cc2)C1 (stereo unspecified),–,inactive: 73.5% [at 17.3 µM]
O=c1c(-c2ccc(O)cc2)coc2cc(O[C@@H]3O[C@H](CO)[C@@H](O)[C@H](O)[C@H]3O)ccc12,"inconclusive: 23.5 µM [cytotoxic, partial curve, poor fit]",–
CCCCN=C(N)NC(=N)N,"inconclusive: 21.1 µM [cytotoxic, single point]",–
CCCCS(=O)(=O)NC(Cc1ccc(OCCCCC2CCNCC2)cc1)C(=O)O (stereo unspecified),"inconclusive: 25.9 µM [cytotoxic, single point]",–
COc1cc2c(cc1OC)CN(C(=O)[C@H](C)N[C@@H](CCc1ccccc1)C(=O)O)[C@H](C(=O)O)C2,–,inactive: 89.6%
CC12CCC3c4ccc(O)cc4CCC3C1CC(OC1OC(C(=O)O)C(O)C(O)C1O)C2O (stereo unspecified),–,inactive: 111%
COc1ccc(C(=O)n2c(C)c(Cc3cccc(O[C@@H](C)C(=O)O)c3)c3cc(OC(F)(F)F)ccc32)cc1,"inconclusive: 18.4 µM [cytotoxic, partial curve, poor fit]",–
CC1CC(O)/C=C/C(O)/C=C\C(=O)O1 (stereo unspecified),"inconclusive: 0.266 µM [cytotoxic, full curve, poor fit]",–
CC#CCn1c(N2CCCC(N)C2)nc2c1c(=O)n(Cc1nc(C)c3ccccc3n1)c(=O)n2C (stereo unspecified),"inconclusive: 29.1 µM [cytotoxic, single point]",–
Cn1cc(-c2ccc3ncc(Cc4ccc5ncccc5c4)n3n2)cn1,"inconclusive: 18.4 µM [cytotoxic, partial curve]",–
O=C(/C=C/N1C[C@H]2C[C@@H]1CN2c1ccccn1)c1ccccc1O,inconclusive: 0.001 µM,–
O=C(/C=C/c1ccc(O)cc1)OC[C@H]1O[C@@H](OC(=O)/C=C/c2ccccc2)[C@H](O)[C@@H](O)[C@@H]1O,–,inactive: 87.9% [at 17.3 µM]
Nc1nc2c(ncn2CCC(CO)CO)c(=O)[nH]1,inactive,–
C=C(C)C1CCC2(C(=O)O)CCC3(C)C(CCC4C5(C)C(C=O)C(O)C(C)(C)C5CCC43C)C12 (stereo unspecified),"inconclusive: 12.6 µM [cytotoxic, single point]",–
C[N+](C)(C)CCOC(=O)CCC(=O)OCC[N+](C)(C)C,–,inactive: 90.9%
COc1c2c(c(CO)c3c1C(=O)OC3)OC1(C)CCC3(O)C(C)(C)OC(=O)CCC3(C)C1C2 (stereo unspecified),"inconclusive: 6.32 µM [cytotoxic, partial curve, poor fit]",–
